{"source": "PubChem BioAssay AID504333", "about": "(National Center for Advancing Translational Sciences (NCATS), 2011)", "note": "Where “and” joins values, the source holds several entries; their conditions need not be identical. Identical values can stand only once. Screen size: about 360,000 compounds; about 16,000 (4.4%) were called active. Inconclusive means that the source gave no clear call. Such entries were picked first, then a sample of the others. Calls follow the shape of the dose curve; as a rule, active = well fitted inhibition curve with a large enough effect; inconclusive = small, poorly fitted or top-dose-only effect; inactive = no such curve, though single readings can be large or run the other way. A potency beside an inconclusive call is a rough fit, not a confirmed value. The source holds several records for some structures; these can differ, active in one and inactive in another."}
{"biological_target": "Bromodomain adjacent to zinc finger domain protein 2B (Homo sapiens) (UniProt Q9UIF8)", "sequence (Q9UIF8 whole entry, looked up, the tested form may be a part)": "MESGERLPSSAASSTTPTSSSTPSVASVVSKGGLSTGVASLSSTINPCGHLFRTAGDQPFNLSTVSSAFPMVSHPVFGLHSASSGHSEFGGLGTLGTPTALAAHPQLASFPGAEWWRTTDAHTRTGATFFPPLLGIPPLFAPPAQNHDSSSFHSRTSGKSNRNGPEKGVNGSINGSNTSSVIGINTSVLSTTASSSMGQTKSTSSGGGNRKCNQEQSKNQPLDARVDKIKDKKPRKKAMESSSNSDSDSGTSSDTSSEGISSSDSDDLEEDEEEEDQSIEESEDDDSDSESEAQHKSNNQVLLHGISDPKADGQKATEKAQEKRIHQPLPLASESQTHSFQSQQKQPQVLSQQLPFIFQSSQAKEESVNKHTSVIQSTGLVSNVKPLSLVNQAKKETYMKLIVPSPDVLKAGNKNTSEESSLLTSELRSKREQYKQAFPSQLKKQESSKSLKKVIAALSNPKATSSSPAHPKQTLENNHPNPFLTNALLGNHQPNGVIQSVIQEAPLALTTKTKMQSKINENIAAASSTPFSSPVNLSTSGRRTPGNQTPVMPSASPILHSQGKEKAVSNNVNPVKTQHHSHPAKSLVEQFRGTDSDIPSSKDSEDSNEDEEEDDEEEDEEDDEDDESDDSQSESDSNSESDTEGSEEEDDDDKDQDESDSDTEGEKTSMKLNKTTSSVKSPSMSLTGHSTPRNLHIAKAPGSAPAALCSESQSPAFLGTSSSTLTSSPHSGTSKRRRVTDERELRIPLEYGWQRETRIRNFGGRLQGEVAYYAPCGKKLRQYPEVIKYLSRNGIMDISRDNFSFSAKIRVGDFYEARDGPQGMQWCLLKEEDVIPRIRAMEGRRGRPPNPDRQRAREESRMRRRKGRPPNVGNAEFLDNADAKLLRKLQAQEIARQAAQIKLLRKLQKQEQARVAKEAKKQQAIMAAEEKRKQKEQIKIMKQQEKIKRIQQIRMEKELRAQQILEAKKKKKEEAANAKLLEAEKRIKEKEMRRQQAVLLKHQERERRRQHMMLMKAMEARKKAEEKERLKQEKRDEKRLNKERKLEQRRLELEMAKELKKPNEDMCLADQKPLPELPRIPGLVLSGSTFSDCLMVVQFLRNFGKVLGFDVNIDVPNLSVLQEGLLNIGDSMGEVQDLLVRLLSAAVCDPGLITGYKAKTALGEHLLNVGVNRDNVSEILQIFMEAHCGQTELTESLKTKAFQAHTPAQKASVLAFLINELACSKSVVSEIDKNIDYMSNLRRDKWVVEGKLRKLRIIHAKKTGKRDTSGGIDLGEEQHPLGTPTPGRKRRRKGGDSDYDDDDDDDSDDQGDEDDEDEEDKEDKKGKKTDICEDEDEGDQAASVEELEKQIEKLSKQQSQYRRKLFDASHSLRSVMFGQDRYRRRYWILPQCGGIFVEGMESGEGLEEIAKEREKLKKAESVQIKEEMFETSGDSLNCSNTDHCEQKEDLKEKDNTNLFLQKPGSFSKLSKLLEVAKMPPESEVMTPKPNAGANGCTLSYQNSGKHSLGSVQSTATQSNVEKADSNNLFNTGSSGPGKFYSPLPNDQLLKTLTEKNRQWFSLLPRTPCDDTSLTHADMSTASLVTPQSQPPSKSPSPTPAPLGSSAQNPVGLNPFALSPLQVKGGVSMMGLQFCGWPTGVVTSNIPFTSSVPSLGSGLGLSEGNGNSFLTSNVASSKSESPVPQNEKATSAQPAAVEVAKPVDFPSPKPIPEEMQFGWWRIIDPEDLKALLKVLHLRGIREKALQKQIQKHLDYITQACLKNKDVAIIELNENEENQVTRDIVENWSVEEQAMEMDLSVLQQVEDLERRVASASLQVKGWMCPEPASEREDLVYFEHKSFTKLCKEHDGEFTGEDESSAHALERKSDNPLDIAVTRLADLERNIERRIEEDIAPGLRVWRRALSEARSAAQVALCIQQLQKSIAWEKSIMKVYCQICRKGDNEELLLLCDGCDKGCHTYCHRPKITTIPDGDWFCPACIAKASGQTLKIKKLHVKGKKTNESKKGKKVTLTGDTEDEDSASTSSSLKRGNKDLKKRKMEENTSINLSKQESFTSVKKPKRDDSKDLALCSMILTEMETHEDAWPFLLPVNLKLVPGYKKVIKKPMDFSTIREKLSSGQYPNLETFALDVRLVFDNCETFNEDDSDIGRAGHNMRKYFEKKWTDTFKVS", "test": "qHTS Assay for Inhibitors of BAZ2B; also: nearly all actives have a fitted effect of over 60% in size; also: potency is read from the fitted curve at half-maximal effect; tags tell the direction and shape of the fitted curve", "conditions": "AlphaScreen BAZ2B-H3K14Ac peptide displacement; series mostly up to 114 µM", "method_in_brief": "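Multi-concentration screen (max 110 uM) measuring displacement of acetylated histone H3 peptide from BAZ2B by AlphaScreen, using 50 nM protein, 50 nM peptide and 10 ug/mL streptavidin donor plus Ni-chelate acceptor beads.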"}
{"molecule": "Cc1ccc(-n2nc3c(=O)n(CC(=O)NCC(C)c4ccccc4)nc(C)c3c2C)cc1", "note": "(stereo unspecified)", "Potency": "inactive"}
{"molecule": "CC(C)(C)NC(=O)C(c1ccncc1)N(Cc1cccs1)C(=O)Cn1nnc(-c2cccs2)n1", "note": "(stereo unspecified)", "Potency": "inconclusive: 56.2 µM [inhibitor, partial curve]"}
{"molecule": "Nc1ccc(N2CCN(CCCCN3C(=O)C4CCCN4C3=O)CC2)cc1", "note": "(stereo unspecified)", "Potency": "inconclusive: 56.2 µM [inhibitor, partial curve]"}
{"molecule": "O=c1c(=O)n(O)c2ccccc2n1O", "Potency": "active: 39.8 µM"}
{"molecule": "CN1C(=O)CSc2ccc(C(=O)O)cc21", "Potency": "inactive"}
{"molecule": "COc1cc([N+](=O)[O-])cc(/C=N/NC(=O)Cn2nc(C)cc2C)c1O", "Potency": "active: 70.8 µM"}
{"molecule": "CCOc1ccc(CNC(=O)CCCc2cn(C)c3ccccc23)cc1OC", "Potency": "inconclusive: 79.4 µM [inhibitor, single point]"}
{"molecule": "COc1ccc2c(CC(=O)OCC(=O)Nc3ccccc3[N+](=O)[O-])coc2c1", "Potency": "inconclusive: 10 µM [inhibitor, full curve]"}
{"molecule": "CCCCN1C(=O)/C(=C2/C=CC=CN2C)SC1=S", "Potency": "active: 44.7 µM"}
{"molecule": "Cc1ccc(C)c(CN2C(=O)c3ccccc3S(=O)c3ccc(C(=O)N4CCN(c5cccc(Cl)c5)CC4)cc32)c1", "note": "(stereo unspecified)", "Potency": "inconclusive: 89.1 µM [inhibitor, single point]"}
{"molecule": "Cn1ncc([N+](=O)[O-])c1C(=O)Nc1ccc(-c2nc3ccccc3[nH]2)cc1", "Potency": "inactive"}
{"molecule": "COc1ccccc1OCC(=O)NCC(c1ccc(Cl)cc1)N1CCOCC1", "note": "(stereo unspecified)", "Potency": "inactive"}
{"molecule": "O=C(/C=C/c1cccs1)c1ccc(N2CCOCC2)cc1", "Potency": "inconclusive: 79.4 µM [inhibitor, partial curve]"}
{"molecule": "CN(C)c1ccc(C(=O)NC2(N3CCC3=O)CCCC2)cc1", "Potency": "inconclusive: 70.8 µM [inhibitor, single point]"}
{"molecule": "c1ccc(Nc2nc(-c3cccs3)cs2)nc1", "Potency": "inconclusive: 89.1 µM [inhibitor, single point]"}
{"molecule": "CC(=O)N(c1ccc2oc(=O)sc2c1)S(=O)(=O)c1ccccc1", "Potency": "inconclusive: 89.1 µM [inhibitor, single point]"}
{"molecule": "O=c1cc(-c2ccccc2)n2c(SCc3c(F)cccc3Cl)nnc2[nH]1", "Potency": "inactive"}
{"molecule": "COc1ccc(/C=N/NC(=O)c2nn(-c3ccccc3)c(=O)c3c(N)scc23)cc1", "Potency": "active: 39.8 µM"}
{"molecule": "COC(=O)N1[C@H](Cc2ccccc2)C=C[C@]1(C)C(=O)NCc1ccccn1", "Potency": "inactive"}
{"molecule": "Cc1nc2ccccn2c1C(=O)NC1CCCCC1", "Potency": "inconclusive: 89.1 µM [inhibitor, single point]"}
{"molecule": "CC1=CC(C)(C)Nc2ccccc21", "Potency": "active: 50.1 µM"}
{"molecule": "C=CCN(CC=C)c1cnn(-c2nc3ccccc3[nH]2)c(=O)c1Cl", "Potency": "inconclusive: 79.4 µM [inhibitor, single point]"}
{"molecule": "COC(=O)c1ccc(C)c(-n2c(C)cc(C=O)c2C)c1", "Potency": "inconclusive: 79.4 µM [inhibitor, partial curve]"}
{"molecule": "CC[C@H](C)C(N)c1cn([C@@H](CC(N)=O)C(=O)N2CCNCC2)nn1", "note": "(stereo partly specified)", "Potency": "inconclusive: 89.1 µM [inhibitor, single point]"}
{"molecule": "CCCOc1ccc(OCCN2CCCC(C)C2)cc1", "note": "(stereo unspecified)", "Potency": "active: 56.2 µM"}
{"molecule": "Cc1c(C(=O)N2CCCCCC2)c(S(=O)(=O)N(Cc2ccccc2)C(C)(C)C)c(C)n1C", "Potency": "inconclusive: 79.4 µM [inhibitor, partial curve]"}
{"molecule": "Cc1cccc(N2CCN(C(=O)CC(NC(=O)c3ccccc3)c3ccccc3)CC2C)c1", "note": "(stereo unspecified)", "Potency": "inconclusive: 50.1 µM [inhibitor, partial curve]"}
{"molecule": "CC[n+]1c(/C=C2/C=C(C)CC(C)C2)sc2ccccc21", "note": "(stereo unspecified)", "Potency": "inconclusive: 50.1 µM [inhibitor, partial curve]"}
{"molecule": "CC1(c2cccc(Br)c2)NC(=O)N(CC(=O)Nc2ccc(S(N)(=O)=O)cc2)C1=O", "note": "(stereo unspecified)", "Potency": "inactive"}
{"molecule": "CC(/C=C\\c1cccnc1)=C/C(=O)O", "Potency": "inactive and active: 50.1 µM"}
{"molecule": "COc1ccc(N(C(=O)/C=C\\C(=O)Nc2ccc(C)cc2)C(C(=O)NCc2ccco2)c2ccc(C)cc2)cc1", "note": "(stereo unspecified)", "Potency": "inactive"}
{"molecule": "C/C(=C\\c1ccc2c(c1)OCO2)C1Nc2cccc3cccc(c23)N1", "Potency": "inconclusive: 79.4 µM [inhibitor, single point]"}
{"molecule": "O=C1C2C3C=CC(C4CC34)C2C(=O)N1/N=C/c1cccs1", "note": "(stereo unspecified)", "Potency": "inconclusive: 89.1 µM [inhibitor, single point]"}
{"molecule": "N#Cc1c(SCC(=O)Nc2cccc(C(F)(F)F)c2)sc2c(O)cc(=O)[nH]c12", "Potency": "inconclusive: 89.1 µM [inhibitor, single point]"}
{"molecule": "CCOC(=O)N1CCN(S(=O)(=O)c2ccc(C(=O)NNc3nc4ccc(Cl)cc4s3)cc2)CC1", "Potency": "inactive"}
{"molecule": "CCOc1ccccc1NC(=O)C(CC)n1c(C(=O)OC)cc2occc21", "note": "(stereo unspecified)", "Potency": "inconclusive: 17.8 µM [inhibitor, full curve]"}
{"molecule": "O=C1NC(=O)/C(=C\\c2ccc(O)cc2O)S1", "Potency": "active: 28.2 µM"}
{"molecule": "COc1cc(C2c3c(-c4ccccc4O)n[nH]c3C(=O)N2Cc2ccco2)ccc1OCC(C)C", "note": "(stereo unspecified)", "Potency": "inconclusive: 31.6 µM [inhibitor, full curve, poor fit]"}
{"molecule": "CN(C)CCNc1oc(COc2ccc(Cl)cc2Cl)nc1C#N", "Potency": "inactive"}
{"molecule": "Cc1cc(NC(=O)c2cc([N+](=O)[O-])cc([N+](=O)[O-])c2C)no1", "Potency": "inconclusive: 50.1 µM [inhibitor, partial curve]"}
{"molecule": "N#CCCC(CCC#N)C1=NCCc2ccccc21", "Potency": "inactive"}
{"molecule": "C=CCn1c(C)cc(C(=O)CN2C(=O)NC3(CCCc4ccccc43)C2=O)c1C", "note": "(stereo unspecified)", "Potency": "inconclusive: 70.8 µM [inhibitor, single point]"}
{"molecule": "COCc1cc(C)nc(N/N=C/c2ccc(-c3ccc(C(=O)O)c(Cl)c3)o2)c1C#N", "Potency": "active: 79.4 µM"}
{"molecule": "Cc1ccc(C2=Nc3ccccc3N=C(C(Cl)Cl)C2)cc1", "Potency": "inconclusive: 44.7 µM [inhibitor, partial curve]"}
{"molecule": "CCOc1ccc2nc(NC(=O)CCC(=O)c3cccs3)sc2c1", "Potency": "inconclusive: 79.4 µM [inhibitor, partial curve, poor fit]"}
{"molecule": "COc1cc(C(=O)N2CCN(C/C=C/c3ccccc3)CC2)cc(OC)c1C", "Potency": "inconclusive: 56.2 µM [inhibitor, partial curve]"}
{"molecule": "CCC(C)NC(=O)c1ccccc1NC(=O)CN(c1ccc(OC)cc1)S(C)(=O)=O", "note": "(stereo unspecified)", "Potency": "inconclusive: 7.08 µM [inhibitor, full curve]"}
{"molecule": "c1coc(C2Nc3cccc4cccc(c34)N2)c1", "Potency": "inconclusive: 89.1 µM [inhibitor, single point]"}
{"molecule": "O=C(CCN1C(=O)/C(=C/c2cccs2)SC1=S)Nc1ccccn1", "Potency": "inconclusive: 3.55 µM [inhibitor, full curve]"}
{"molecule": "Cc1ccc(Cl)c(OCC(=O)NCc2ccco2)c1", "Potency": "inconclusive: 89.1 µM [inhibitor, single point]"}
{"molecule": "Cc1ccc2nc(Cl)c3cc(C(=O)NCCCN(C)Cc4ccccc4)sc3c2c1", "Potency": "active: 22.4 µM"}
{"molecule": "CCCOc1ccc2c(c1)C(=NN=C(N)N)c1cc(OCCC)ccc1-2", "Potency": "active: 39.8 µM"}
{"molecule": "Cc1nc2cc(NCc3ccccc3O)ccc2n1Cc1ccccc1", "Potency": "active: 20 µM"}
{"molecule": "Cc1nn(C)cc1S(=O)(=O)Nc1cccc(Cl)c1", "Potency": "inactive"}
{"molecule": "COc1ccccc1CN(C)CC(=O)Nc1ccc(Cl)cc1C(F)(F)F", "Potency": "active: 50.1 µM"}
{"molecule": "O=C(c1cc2n(n1)C(C(F)(F)F)CC(c1ccco1)N2)N1CCc2ccccc2C1", "note": "(stereo unspecified)", "Potency": "inconclusive: 89.1 µM [inhibitor, single point]"}
{"molecule": "CCNc1nc(N)c(C(=O)c2ccc(Cl)s2)s1", "Potency": "inconclusive: 35.5 µM [inhibitor, partial curve]"}
{"molecule": "COc1cc(C(=O)N(Cc2ccccn2)CC2CCCO2)cc(OC)c1OC", "note": "(stereo unspecified)", "Potency": "active: 56.2 µM"}
{"molecule": "O=C(NCc1cccs1)c1cccnc1SCCS(=O)(=O)c1ccc(C(F)(F)F)cn1", "Potency": "inactive"}
{"molecule": "CN(C)CCN(C(=O)CN1C(=O)c2ccccc2C1=O)c1nc2cc3c(cc2s1)OCO3", "Potency": "active: 89.1 µM"}
{"molecule": "CCCCN(CC)S(=O)(=O)c1ccc(C(=O)N(CCCN(C)C)c2nc3cc(C)cc(C)c3s2)cc1", "Potency": "inconclusive: 17.8 µM [inhibitor, full curve]"}
{"molecule": "COc1cccc(C(=O)/C=C/Nc2ccc(S(=O)(=O)Nc3cc(OC)nc(OC)n3)cc2)c1", "Potency": "inconclusive: 44.7 µM [inhibitor, partial curve]"}
{"molecule": "COc1ccccc1/C=C/C=N/NC(=O)CN1CCN(Cc2ccccc2)CC1", "Potency": "inactive"}
{"molecule": "O=C(CSc1nc(O)cc(=O)n1-c1ccccc1)Nc1ccccn1", "Potency": "inconclusive: 89.1 µM [inhibitor, single point]"}
{"molecule": "COc1cccc(NC(=O)Nc2cc(C(=O)O)ccc2N2CC3CC(C2)c2cccc(=O)n2C3)c1", "note": "(stereo unspecified)", "Potency": "inactive"}
{"molecule": "Cc1cc(C2C(=O)C(C(=O)c3ccc(Cl)cc3)C(=O)CC2(C)C)on1", "note": "(stereo unspecified)", "Potency": "inconclusive: 89.1 µM [inhibitor, single point]"}
{"molecule": "COc1cccc2sc(N(CCCN(C)C)C(=O)c3sc4ccccc4c3Cl)nc12", "Potency": "inconclusive: 44.7 µM [inhibitor, partial curve]"}
{"molecule": "COC(=O)c1c(NC(C)=O)sc(C(=O)N2CCOCC2)c1C", "Potency": "inactive"}
{"molecule": "O=C(C1CCN(Cc2ccccc2O)CC1)N1CCN(Cc2ccc3c(c2)OCO3)CC1", "Potency": "inconclusive: 56.2 µM [inhibitor, partial curve]"}
{"molecule": "Cc1ccc(C(C[N+](=O)[O-])c2c(C)cc3ccccn23)cc1", "note": "(stereo unspecified)", "Potency": "inconclusive: 44.7 µM [inhibitor, partial curve]"}
{"molecule": "Cc1ccc(OCC(=O)N/N=C\\c2ccc(C)o2)c([N+](=O)[O-])c1", "Potency": "inconclusive: 79.4 µM [inhibitor, single point]"}
